Data from article PMC4336329 (PLoS ONE, 2015).
Hit rate of the full screen: of about 310,000 compounds, about 2,200 (0.71%) showed an effect of 50% or more. Effects have a minus sign here. The list shows a part of the results.

target: human ether-à-go-go-related gene (hERG) potassium channel (human, UniProt Q12809); experiment: primary screen, population patch clamp on CHO cells stably expressing hERG
Sequence (Q12809 whole entry, looked up): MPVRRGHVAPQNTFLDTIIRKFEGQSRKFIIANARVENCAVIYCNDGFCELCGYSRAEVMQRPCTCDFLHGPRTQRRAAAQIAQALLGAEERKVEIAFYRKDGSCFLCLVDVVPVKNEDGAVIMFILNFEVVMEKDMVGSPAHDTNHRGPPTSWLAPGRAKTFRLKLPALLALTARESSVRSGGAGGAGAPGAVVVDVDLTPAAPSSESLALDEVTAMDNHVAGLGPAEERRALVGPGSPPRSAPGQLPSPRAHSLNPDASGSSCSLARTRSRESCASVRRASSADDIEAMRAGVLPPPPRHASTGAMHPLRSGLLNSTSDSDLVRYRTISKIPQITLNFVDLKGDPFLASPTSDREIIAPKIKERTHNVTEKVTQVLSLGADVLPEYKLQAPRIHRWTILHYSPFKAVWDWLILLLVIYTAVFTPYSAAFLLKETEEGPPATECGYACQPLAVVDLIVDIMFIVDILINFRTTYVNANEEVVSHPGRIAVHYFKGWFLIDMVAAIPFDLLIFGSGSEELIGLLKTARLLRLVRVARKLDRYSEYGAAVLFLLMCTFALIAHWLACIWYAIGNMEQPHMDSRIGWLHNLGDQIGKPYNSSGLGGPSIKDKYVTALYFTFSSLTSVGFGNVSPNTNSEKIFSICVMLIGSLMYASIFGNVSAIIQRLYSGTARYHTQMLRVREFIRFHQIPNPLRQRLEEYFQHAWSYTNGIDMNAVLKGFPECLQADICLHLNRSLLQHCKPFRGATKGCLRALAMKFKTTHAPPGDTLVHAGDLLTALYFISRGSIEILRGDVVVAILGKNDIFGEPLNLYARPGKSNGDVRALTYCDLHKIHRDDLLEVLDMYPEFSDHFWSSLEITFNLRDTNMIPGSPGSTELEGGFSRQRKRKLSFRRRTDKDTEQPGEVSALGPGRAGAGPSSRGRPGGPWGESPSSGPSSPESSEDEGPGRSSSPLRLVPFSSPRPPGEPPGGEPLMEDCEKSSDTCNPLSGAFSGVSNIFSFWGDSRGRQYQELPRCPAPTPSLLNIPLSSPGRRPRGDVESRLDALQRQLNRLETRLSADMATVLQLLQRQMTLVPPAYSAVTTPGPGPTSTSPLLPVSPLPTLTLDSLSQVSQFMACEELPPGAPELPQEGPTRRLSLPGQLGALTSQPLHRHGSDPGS

Row | SMILES | hERG current change (%, negative = inhibition) at 1uM [%]
1 | OCCN1CCN(C(=S)Nc2ccccc2)CC1 | 4.66
2 | CCC(NS(=O)(=O)c1cnn(CC)c1)c1ccccc1 (stereo not drawn) | 24.3
3 | O=[N+]([O-])c1cc(/C=N/O)ccc1Sc1ccccc1 | 3.86
4 | CCc1c(C)nc2ncnn2c1NCCc1ccc(Cl)cc1 | -2.06
5 | CS(=O)(=O)c1[nH]nc(-c2cccc(Cl)c2)c1C#N | 11
6 | CCc1ccc(OCCOCC(O)CNC(C)CC)cc1.Cl (stereo not drawn) | 4.27
7 | O=C(CCC(=O)OCC(=O)c1ccccc1)Nc1cccc(Cl)c1 | 5.37
8 | CSc1nc(O)c(C(c2ccccc2)c2c(O)nc(SC)[nH]c2=O)c(=O)[nH]1 | 13.3
9 | CCn1c(C(C#N)/C(=N\S(=O)(=O)c2cccs2)c2ccccc2)nc2ccccc21 (stereo not drawn) | 12.1
10 | CCn1c(SCC(=O)Nc2nc3ccc(OC)cc3s2)nc2c1c(=O)n(C)c(=O)n2C | -28.1
11 | O=C(Nc1cccc(Cl)c1)NC1CCS(=O)(=O)C1 (stereo not drawn) | 12.9
12 | CS(=O)(=O)N(CC(=O)Nc1ccc2c(c1)OCO2)c1ccccc1 | 13.8
13 | CC(C)=CCC1=C(OCC(=O)O)C(=O)c2ccccc2C1=O | 7.91
14 | Cc1ccc(CNc2ncnc3cc(Cl)ccc23)o1 | 5.91
15 | COc1cccc(NC(=O)COc2coc(CN3CCN(c4ccccc4)CC3)cc2=O)c1 | 13.8
16 | CCOc1ccccc1NC1=C(Cl)C(=O)N(c2ccc(OC)cc2)C1=O | -0.465
17 | Oc1ccc(C=NC2CCCCC2)c(O)c1 | 15.2
18 | C=CCn1c(-c2cccn(Cc3ccc(Cl)cc3)c2=O)n[nH]c1=S | 11.2
19 | COC(=O)c1scc(S(=O)(=O)C(C)(C)C)c1-n1cccc1 | 10.2
20 | COCCSc1nnc(NC(=O)CCS(=O)(=O)Cc2ccccc2)s1 | 4.79
21 | Cc1ccc(OCC(=O)N2CCCCC2)c(Br)c1 | -6.22
22 | CCCCSCCCNC(=O)c1cn(CC)c2ccc(S(=O)(=O)N3CCOCC3)cc2c1=O | 2.98
23 | CC(C)NC(=S)N1CCN(S(C)(=O)=O)CC1 | 8.23
24 | COc1ccccc1-c1cc(=O)c2c(O)ccc([N+](=O)[O-])c2o1 | 4.67

Row | SMILES | hERG current change (%, negative = inhibition) at 1uM [%]
25 | C=CCn1c(SCC(=O)NCc2ccccc2)nnc1C1CCCCC1 | 9.62
26 | O=C(NC(=O)N1CCC2(CC1)OCCO2)c1ccc(Cl)cc1 | 18.3
27 | CC(C)(O)CCC(C)(C)O | 11
28 | CCn1nnnc1-c1ccc(OC)c(S(=O)(=O)Nc2ccc(S(N)(=O)=O)cc2)c1 | 8.72
29 | COc1ccc(N/C(=C/[N+](=O)[O-])SC)cc1 | 10.8
30 | Cc1csc(=O)n1CCC(=O)OCC(=O)NNC(=O)c1ccc(Br)cc1 | 3.41
31 | CCC(=O)N1CC23C=CC(CC2CC12CCCCC2)O3 (stereo not drawn) | -7.05
32 | NC(=O)c1cccc(NC(=O)CCCCC(=O)Nc2cccc(C(N)=O)c2)c1 | 10.5
33 | O=C(CSc1nc(-c2ccccc2)cc(=O)[nH]1)Nc1ccc(Br)cc1 | 12.9
34 | O=C(CC12CC3CC(CC(C3)C1)C2)N1CCCOC1 | -1.93
35 | Cc1ccc(S(=O)(=O)NCCC(=O)NNC(=O)c2ccccc2O)cc1C | -9.68
36 | CCOC(=O)c1c(CC(C)C)csc1NC(=O)C(C)C | 6.76
37 | CC(=O)Nc1cccc(C(=O)N2CCN(Cc3ccccc3)CC2)c1 | 12.2
38 | Cc1noc(C)c1COC(=O)c1csc2c1CCC(C)C2 (stereo not drawn) | 1.62
39 | C/C(=N\Nc1nnc(C)c(=O)[nH]1)C(=O)O | 10.7
40 | Cc1ccc(NC(=O)C(OC(=O)c2ccc(F)cc2)c2ccccc2)cc1Cl (stereo not drawn) | 7.06
41 | CNc1c([N+](=O)[O-])cnn1-c1ccc(Cl)cc1 | 12.5
42 | CCCc1nnc(SCC(=O)Nc2ccc(C(=O)OCC)cc2)o1 | 11.2
43 | COc1ccc(NC(=O)Nc2cccs2)cc1Cl | 5.34
44 | COc1ccc(-c2cc(=O)oc3cc(OC(C)C(=O)Nc4ccc(CN5CCOCC5)cc4)ccc23)cc1 (stereo not drawn) | 13.3
45 | Cc1cc(-c2ccc(N3CCOCC3)cc2)nc2ccccc12.Cl | 7.84
46 | CC1CCCN(C(=O)CSCC(=O)Nc2nc(-c3cccs3)cs2)C1 (stereo not drawn) | 6.95
47 | O=C1c2ccccc2C(=Nc2ccccc2)C1c1cccc(Br)c1 (stereo not drawn) | 7.85
48 | Cc1ccc2nc(C3CCCN(C(=S)Nc4cccc(C)c4C)C3)[nH]c2c1 (stereo not drawn) | 10

Row | SMILES | hERG current change (%, negative = inhibition) at 1uM [%]
49 | CN1CCN(c2ccc(NC(=S)NC(=O)c3cccc4c(Br)cccc34)cc2)CC1 | 28.8
50 | c1nnc(NC2=NCCC2)s1 | 4.26
51 | Cc1ccc(NC(=O)c2ccc(N3C(=O)C4CC=C(Cl)CC4C3=O)cc2)cc1 (stereo not drawn) | 14.3
52 | COC(=O)CC1C(=O)NCCN1C(=S)Nc1cc(C)cc(C)c1 (stereo not drawn) | 9.96
53 | Oc1ccc(-c2cccc(-c3ccc(O)cc3)c2)cc1 | 11.9
54 | O=C(CSc1nnc(C2COc3ccccc3O2)o1)N1CCOCC1 (stereo not drawn) | 7.4
55 | CCCCn1nnnc1SCC(=O)N1CCOCC1 | 9.21
56 | c1ccc(Nc2nc(-c3cccs3)cs2)nc1 | 3.52
57 | Cc1cc(C)nc(OC(=O)c2ccc(Cl)cc2Cl)n1 | 8.05
58 | CS(=O)(=O)N1CCN(C(=O)c2ccc(F)cc2)CC1 | -12
59 | Cc1ccc(NC(=O)Cn2c(CCC(=O)O)ccc2-c2ccc(Cl)cc2)cc1 | 12.6
60 | COC(=O)c1ccc(-n2cncn2)c([N+](=O)[O-])c1 | 12.9
61 | CCCOc1ccc(NCC(=O)Nc2ccc(C)cc2C)cc1 | 28.3
62 | COc1cccc(NC(=O)Cn2nnc(C(=O)NCCc3ccccc3)c2N)c1 | 10.1
63 | COc1cc(C)c(Cl)cc1S(=O)(=O)NCc1ccccn1 | 10.7
64 | CN1C=CC=C/C1=C1\SC(=S)N(C2CCCCC2)C1=O | -3.62
65 | Cc1ccc(S(=O)(=O)Nc2ccccc2C(=O)Nc2nc(-c3ccc(F)cc3)cs2)cc1 | 14.7
66 | C=CCOc1ccc(C2C(C(=O)c3ccco3)=C(O)C(=O)N2Cc2cccnc2)cc1 (stereo not drawn) | 10.1
67 | O=C(Cc1ccccc1)Nc1ccccc1C(=O)O | 7.71
68 | COc1ccc(OC)c(N(CC(=O)Nc2cccnc2)S(C)(=O)=O)c1 | 14.4
69 | COc1cccc(CC(NC(C)=O)C(=O)NC2CCN(c3c(Cc4ccccc4)c(C)nc4ncnn34)CC2)c1OC (stereo not drawn) | 4.46
70 | COc1ccc(F)cc1S(=O)(=O)NC(Cc1ccccc1)C(N)=O (stereo not drawn) | 12.8
71 | COC(=O)C1C(=O)c2c([nH]c(C(=O)OCCOC(C)C)c2C)CC1C (stereo not drawn) | 1.2
72 | CC(C)OC(=O)Cn1c(=O)sc2ccccc21 | -2.67

Row | SMILES | hERG current change (%, negative = inhibition) at 1uM [%]
73 | CCOC(=O)Cc1csc(NC(=O)CCNS(=O)(=O)c2ccc3c(c2)CCC(=O)N3)n1 | 10.8
74 | Cc1ccc(S(=O)(=O)N2CCN(C(=O)N(C)C)CC2)cc1C | 12.7
75 | Cc1cc(NC(=O)CSc2nncc(=O)n2N)no1 | 6.99
76 | CCc1ccc(S(=O)(=O)NCC(O)COc2ccc(OC)cc2)cc1 (stereo not drawn) | 8.34
77 | COc1ccc(NS(=O)(=O)c2ccc3c(c2)n(C)c(=O)n3C)cc1 | 10.5
78 | CCOc1ccc(NC(=S)Nc2cccc3cnccc23)cc1 | 2.53
79 | COc1cccc2cc(C(=O)N3CCN(c4ccccc4F)CC3)c(=O)oc12 | 9.64
80 | COc1cc2nc(CN(C)Cc3ccc(C(C)(C)C)cc3)[nH]c(=O)c2cc1OC | -3.91
81 | O=[N+]([O-])c1ccc(NC(=S)N/C(=N/CS(=O)(=O)c2ccccc2)c2ccccc2)cc1 | 11
82 | COc1cc(/C=C/C(=O)NCCN2CCOCC2)cc(OC)c1OC | 11.5
83 | Nc1nc(SCC(=O)Nc2ccc3c(c2)CCC3)n[nH]1 | 9.58
84 | O=[N+]([O-])c1ccccc1CCl | 12.3
85 | CCc1ccc(OCC(=O)NC2CCCCC2)c(Br)c1 | 11.9
86 | CCOc1ccc(N(CC(=O)OC)S(=O)(=O)c2ccc(OC)c(OC)c2)cc1 | -0.463
87 | CC(=O)NC(=S)Nc1ccc(S(=O)(=O)Nc2ncccn2)cc1 | 15
88 | O=C(OCc1ccc(Cl)cc1)c1cccnc1Cl | 11.8
89 | CC(=O)Nc1ccc(NC(=O)COC(=O)/C(=C/c2ccccc2)n2nnnc2C)cc1 | 8.75
90 | COc1ccc(CCC2(C)NC(=O)N(C(C)C(=O)N3c4ccccc4CC3C)C2=O)cc1 (stereo not drawn) | 3.27
91 | COc1ccccc1N1CCN(C(=O)C2CC(=O)N(c3ccccc3)C2)CC1 (stereo not drawn) | 6.55
92 | COc1ccc(OC)c(CCNC(=O)CC2(CC3=NS(=O)(=O)c4ccccc4N3)CCCC2)c1 | 13.4
93 | Cc1cccc(NC(=S)N2CCN(S(=O)(=O)c3ccccc3)CC2)c1 | 13.3
